Data from PubChem BioAssay AID686970 (National Center for Advancing Translational Sciences (NCATS), 2013).
Among all 360,000 compounds or so, about 6,000 (1.7%) were called active. Inconclusive means that the source gave no clear call. Such entries were picked first, then a sample of the others. Calls follow the shape of the dose curve; as a rule, active = well fitted cell-killing curve with a large enough effect; inconclusive = small, poorly fitted or top-dose-only effect, or effect the other way; inactive = flat fitted curve, though single readings scatter. Potencies of inconclusive entries are left out as doubtful fits.

Assay: qHTS for induction of synthetic lethality in tumor cells producing 2HG: qHTS for the HT-1080-NT fibrosarcoma cell line;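 also: NT is the 2HG producing partner of a matched IDH1 knockdown line; nearly all actives have a fitted effect of over 55% in size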;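 as to activity, negative = less viability: 0% = DMSO-treated cells and -100% = media-only wells without cells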
Conditions: HT-1080-NT fibrosarcoma viability, CellTiter-Glo ATP luminescence, 48 h; activity, negative = less viability: at 46.1 µM (top of the series) unless noted
Summary of the method: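 Fibrosarcoma NT cells, 750 per well in 5% FBS RPMI, were exposed to compound for 48 hours. Viability: CellTiter-Glo luminescence.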
Potency is read from the fitted curve at half-maximal effect; tags tell the direction and shape of the fitted curve.

Row | Structure (SMILES) | Potency | activity, negative = less viability
1 | COCCNC(=O)c1onc(CS(=O)(=O)c2cc(C)cc(C)c2)c1C(=O)NCCOC | inactive | 
2 | CCCCCCCNC(=O)C1(CC2CC(c3cccc(Br)c3)=NO2)CCN(C(=O)CCCCCBr)CC1 (stereo not drawn) | active: 16.4 µM | 
3 | CCCCN(C)C(=O)c1oc2ccc(S(=O)(=O)N3CCCCCC3)cc2c1C | inconclusive [cytotoxic, partial curve, poor fit] | 
4 | O=C(OC[C@H]1O[C@@H](OC(=O)c2cc(O)c(O)c(OC(=O)c3cc(O)c(O)c(O)c3)c2)[C@H](OC(=O)c2cc(O)c(O)c(OC(=O)c3cc(O)c(O)c(O)c3)c2)[C@@H](OC(=O)c2cc(O)c(O)c(OC(=O)c3cc(O)c(O)c(O)c3)c2)[C@@H]1OC(=O)c1cc(O)c(O)c(OC(=O)c2cc(O)c(O)c(O)c2)c1)c1cc(O)c(O)c(OC(=O)c2cc(O)c(O)c(O)c2)c1 | active: 11.2 µM | 
5 | C[C@H](CO)N1C[C@H](C)[C@@H](CN(C)C(=O)Nc2ccc(C(F)(F)F)cc2)Oc2ccc(NC(=O)Nc3ccc(C(F)(F)F)cc3)cc2C1=O | inconclusive [cytotoxic, single point] | 
6 | Nc1c(C(=O)CSc2nc(-c3ccccc3)cs2)c(=O)[nH]c(=O)n1C1CC1 | inactive | 
7 | CC(C)CC(N)c1csc(Nc2cc(Oc3ccccc3)ncn2)n1 (stereo not drawn) | active: 20.6 µM | 
8 | COc1cc(COc2ccc3c(C)c(Cc4ccccc4)c(=O)oc3c2C)cc(OC)c1OC | inactive | 
9 | CC[C@@H]1[C@H]2CCCC(=O)N3CC[C@@H](C[C@@H]1Nc1ccccc1)[C@@H]23 | inconclusive [rising, single point] | 
10 | COc1ccc(CN2CCC(N(CCc3ccccc3)Cc3ccccc3)CC2)c(OC)c1 | inconclusive [cytotoxic, single point] | 
11 | FC(F)(F)c1ccc(N2CCOCC2)c(Nc2nc3ccccc3n3cnnc23)c1 | inconclusive [cytotoxic, single point] | 
12 | CC(Nc1nc(-c2ccc(F)cc2)cs1)c1nc2cc(Cl)c(Cl)cc2n1CCCO (stereo not drawn) | inconclusive [cytotoxic, single point] | 
13 | CC(=O)N1CCN(C(=O)COC(=O)CNC(=O)c2ccccc2C)CC1 | inconclusive [rising, single point] | 
14 | Cc1cccc(Oc2sc(C(=O)c3ccccc3)c(N)c2C#N)c1 | inconclusive [cytotoxic, single point] | 
15 | CCOc1ccc(NC(=O)CCNS(=O)(=O)c2ccc3c(c2)c(=O)n(C)c(=O)n3C)cc1 | inactive | 
16 | CCN(CC)S(=O)(=O)c1cccc(C(=O)NCCc2ccccc2)c1 | inactive | 
17 | COc1ccc(Cl)cc1N1C(=NC(=O)C2CCCCC2)SC2CS(=O)(=O)CC21 (stereo not drawn) | inactive | 
18 | CCOc1cc(/C=C2/NC(=O)N(CC(=O)Nc3cccc(C)c3)C2=O)ccc1OC |  | inconclusive: -8.29% [cytotoxic]
19 | O=C(c1cc2c([nH]c1=O)CCCC2)N1CCc2c([nH]c3ccccc23)C1c1ccccc1F (stereo not drawn) | inconclusive [cytotoxic, single point] | 
20 | OCCC1CN(Cc2cccn2-c2ccccn2)CCN1Cc1ccccc1 (stereo not drawn) | inactive | 
21 | Cc1ccc(N/N=C(/Sc2nnnn2-c2ccccc2)C(=O)c2ccccc2)cc1 | inactive | 
22 | C[n+]1c2n(c3ccccc31)N=C(c1ccc(Br)cc1)CS2 | inconclusive [cytotoxic, single point] | 

Row | Structure (SMILES) | Potency | activity, negative = less viability
23 | O=C(NCCc1ccccc1Cl)C1CC(=O)N(C2CCCCC2)C1 (stereo not drawn) | inactive | 
24 | O=C(O)c1ccccc1CSc1nc2ccccc2n1Cc1ccccc1C(=O)O | inactive | 
25 | O=C(Nc1cccc(O)c1)C(=O)Nc1ccccn1 | inconclusive [cytotoxic, single point] | 
26 | Cc1cccc(NC(=S)NC(=O)c2cccs2)n1 | active: 1.26 µM | 
27 | CC(O)(c1ccc(F)c(F)c1)c1nc(-c2cccc3cccnc23)cs1 (stereo not drawn) | inconclusive [cytotoxic, single point] | 
28 | COC(=O)[C@@]12C[C@@H](CC(=O)NCCCCc3ccccc3)C(=O)N(CCc3ccc(OC)c(OC)c3)C1=CCC(C)(C)C2 | inconclusive [cytotoxic, single point] | 
29 | CCNc1nc(CSc2ccccc2)nc2sc(C)c(C)c12 | inconclusive [cytotoxic, single point] | 
30 | COc1ccc(CCC(=O)N2c3ccccc3N=C(c3ccc(C(F)(F)F)cc3)C2C(=O)NC(C)C)cc1 (stereo not drawn) | inconclusive [cytotoxic, single point] | 
31 | COc1cccc2c1O/C(=N\O)C(C(=O)Nc1cccc(C)c1C)C2 (stereo not drawn) | inconclusive [rising, single point] | 
32 | O=C(NCCOc1ccccc1Cl)C(=O)c1c[nH]c2ccccc12 | inactive | 
33 | CCn1c(-c2csc3c2CCCC3)n[nH]c1=S | inactive | 
34 | Cc1cc(C)c2c(N)c(C(=O)NN3CC(=O)N(c4cccc(Cl)c4)CC3=O)sc2n1 | inactive | 
35 | CSc1ccc(NC(=O)NCCCN2CCN(c3ccccc3F)CC2)cc1 | inconclusive [cytotoxic, partial curve] | 
36 | O=C(Nc1cnn(Cc2ccc(Cl)cc2)c1)c1cccs1 | inconclusive [cytotoxic, single point] | 
37 | COc1cccc(CN2CCC2(C)C(=O)Nc2ccc(C)cc2)c1F (stereo not drawn) |  | inconclusive: 3.03%
38 | Cc1ccc(C(NC(=O)CN2C(=O)NC3(CCCC3)C2=O)c2ccccc2)cc1 (stereo not drawn) | inactive | 
39 | Cc1cc(C)c(S(=O)(=O)/N=C2\C=C(Nc3ccc(C(=O)O)cc3)C(=O)c3ccccc32)c(C)c1 | active: 8.2 µM | 
40 | COc1ccc(CNC(=O)Cc2ccc(-c3ccccc3)cc2)cc1OC | active: 14.6 µM | 
41 | CCOc1cc(/C=N\Nc2ncc(F)c(N3CCOCC3)n2)ccc1Oc1nc(Cl)ncc1F | inconclusive [cytotoxic, single point] | 
42 | c1ccc(OCCn2c(-c3ccco3)nc3ccccc32)cc1 | inconclusive [cytotoxic, single point] | 
43 | COc1cc(Cl)ccc1NC(=S)N(CCN1CCOCC1)C1CCN(C(C)=O)CC1 | inconclusive [rising, single point] | 
